# Test results: patent publication US20240117043A1 (SHANGHAI JUNSHI BIOSCIENCES, published 2024)
# T1: recombinant human TIGIT (His Tag) (human, UniProt Q495A1 22-141)
# T1 construct: Coated antigen of the ELISA; not shown: His tag
# T1 sequence (looked up): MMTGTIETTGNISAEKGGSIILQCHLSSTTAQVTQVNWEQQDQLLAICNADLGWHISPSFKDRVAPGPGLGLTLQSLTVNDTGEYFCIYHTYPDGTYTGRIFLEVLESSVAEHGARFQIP
# T2: recombinant human HX1 hCD112R Fc (human, UniProt Q6DKI7 41-171, limits assumed)
# T2 construct: Coated antigen of the ELISA (Suzhou Junmeng); also called human CD112R; not shown: Fc part
# T2 sequence (looked up): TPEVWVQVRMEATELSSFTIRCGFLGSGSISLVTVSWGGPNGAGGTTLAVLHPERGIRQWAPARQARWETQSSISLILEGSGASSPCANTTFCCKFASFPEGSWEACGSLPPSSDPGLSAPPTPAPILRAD
# T3: human CD112R-mFc protein (human, UniProt Q6DKI7 41-171, limits assumed)
# T3 construct: also called human CD112R protein; not shown: mouse Fc (mFc)
# T3 sequence (looked up): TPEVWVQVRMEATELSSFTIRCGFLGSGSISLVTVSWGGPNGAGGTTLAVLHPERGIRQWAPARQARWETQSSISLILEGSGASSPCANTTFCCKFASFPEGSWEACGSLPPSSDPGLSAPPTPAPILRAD
# T4: human TIGIT on the surface of Jurkat-hTIGIT cells (human, UniProt Q495A1 22-244)
# T4 construct: whole, on cells; also called human TIGIT on the surface of Jurkat cells
# T4 sequence (looked up): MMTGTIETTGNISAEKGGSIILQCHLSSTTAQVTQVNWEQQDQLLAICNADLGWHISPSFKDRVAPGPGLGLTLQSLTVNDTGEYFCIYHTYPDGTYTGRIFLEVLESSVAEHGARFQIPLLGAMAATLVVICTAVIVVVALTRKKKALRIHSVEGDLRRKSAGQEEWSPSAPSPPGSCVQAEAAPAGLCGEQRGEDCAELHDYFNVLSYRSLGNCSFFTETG
# What was measured:
# [1] = target: T1, recombinant human TIGIT (His Tag); experiment: ELISA, relative binding activity, sample kept at 40 C for 0 weeks
# Protocol: (§1) The antibody samples were exchanged into a pH 5.5 buffer system (20 mM histidine-histidine hydrochloride buffer, 230 mM trehalose) with the concentration of the samples controlled at about 5 mg/mL, and the buffer was aliquoted into vials at 500 μL/vial. The vials were placed in a 40° C. incubator to test stability at 0 W, 2 W and 4 W. Samples were sent for analysis according to Table 2. Stability was assessed by the following parameters: (a) the content of antibody monomers, aggregates or fragments determined by SEC-HPLC (size exclusion chromatography); (b) the molecular weight of the antibody determined by CE-SDS (sodium dodecyl sulfate capillary electrophoresis); and (c) the bioactivity of the antibody determined by an ELISA or reporter gene assay.
# [2] = target: T2, recombinant human HX1 hCD112R Fc; experiment: as above
# Protocol: as §1
# [3] = target: T1, recombinant human TIGIT (His Tag); experiment: ELISA, relative binding activity, sample kept at 40 C for 2 weeks
# Protocol: as §1
# [4] = target: T2, recombinant human HX1 hCD112R Fc; experiment: as above
# Protocol: as §1
# [5] = target: T1, recombinant human TIGIT (His Tag); experiment: ELISA, relative binding activity, sample kept at 40 C for 4 weeks
# Protocol: as §1
# [6] = target: T2, recombinant human HX1 hCD112R Fc; experiment: as above
# Protocol: as §1
# human CD112R-mFc protein = target: T3, human CD112R-mFc protein; experiment: flow cytometry, blocking of 1 ug/mL CD112R-mFc binding to CHO hCD112 cells
# Protocol: CHO hCD112 cells (Chinese hamster ovary cells, human CD112 positive) were incubated with different concentrations of the bispecific antibodies JS-1, JS-3, JS-5 and JS-9 and 1 μg/mL human CD112R-mFc protein at 4° C. for 30 min, then washed twice and incubated with a fluorescence-labeled anti-mouse IgG secondary antibody (1:200) in a dark place at 4° C. for 30 min. Finally, the cells were collected using a flow cytometer (BD Canto II), and the fluorescent antibodies bound to the cell surface were detected. Raw data were analyzed using FlowJo to obtain MFI values, antibody dose-dependent binding curves (FIG. 4) were fitted using GraphPad, and IC50 was calculated. The positive controls were hu52 (a recombinant humanized anti-CD112R monoclonal antibody) and JS-Ref (Hengrui) (an anti-TIGIT/CD112R bispecific antibody of Hengrui, expressed and purified according to the sequence of the patent WO2021180205), and the negative control was an anti-KLH-hIgG1 antibody.
# [7] = target: T4, human TIGIT on the surface of …; experiment: flow cytometry, blocking of 1 ug/mL PVR-mFc binding to Jurkat-hTIGIT cells
# Protocol: Jurkat-hTIGIT cells (human T lymphocytes, human TIGIT positive) were incubated with different concentrations of the bispecific antibodies JS-1, JS-3, JS-5 and JS-9 and 1 μg/mL human PVR-mFc protein at 4° C. for 30 min, then washed and incubated with a fluorescence-labeled anti-mouse IgG secondary antibody (1:200) in a dark place at 4° C. for 30 min. Finally, the cells were collected using a flow cytometer (BD Canto II), and the fluorescent antibodies bound to the cell surface were detected. Raw data were analyzed using FlowJo to obtain MFI values, antibody dose-dependent binding curves (FIG. 4) were fitted using GraphPad, and IC50 was calculated. The positive controls were hu20 (a recombinant humanized anti-TIGIT monoclonal antibody) and JS-Ref (Hengrui) (an anti-TIGIT/CD112R bispecific antibody of Hengrui, expressed and purified according to the sequence of the patent WO2021180205), and the negative control was an anti-KLH-hIgG4 antibody.
TIGIT binding activity Elisa (%) [1] [%],CD112R binding activity Elisa (%) [2] [%],TIGIT binding activity Elisa (%) [3] [%],CD112R binding activity Elisa (%) [4] [%],TIGIT binding activity Elisa (%) [5] [%],CD112R binding activity Elisa (%) [6] [%],IC50 (human CD112R-mFc protein) [nM],IC50 [7] [nM],Binder
97,99,100,99,72,80,0.781,1.86,"bispecific antibody JS-5 (IgG1) (bispecific antibody, Tetravalent) heavy: QVQLVQSGAEVKKPGASVKVSCKTSGYAFTEYTMHWVRQAPGKGLEWMGGINPNTGGTTYNQKFQGRVTLTVDKSSSTAYMELSSLRSEDTVVYYCAKLLRLMYYFDYWGQGTLVTVSS[human IgG1 constant region omitted here]GGSGGGGSDIVMTQSPDSLAVSLGERATINCKASQSVSNDVAWYQQKPGQPPKLLIYYVSHRFTGVPDRFSGSGSGTDFTLTISSLQAEDVAVYFCHQAYRSPWTFGCGTKLEIKGGGGSGGGGSGGGGSGGGGSEVQLVESGGGLVKPGGSLRLSCAASGFTFSSYHMSWVRQAPGKCLELVSAINSNGINTYYLDTVKGRFTISRDNAKNSLYLQMNSLRAEDTAVYYCARHEDYYGFAMDYWGQGTLVTVSS light: DIQMTQSPSSLSASVGDRVTITCQASQDVRTAVAWYQQKPGKAPKLLIYSASYRYTGVPSRFSGSGSGTDFTFTISSLQPEDIATYYCHQHYITPWTFGGGTKVEIKRTVAAPSVFIFPPSDEQLKSGTASVVCLLNNFYPREAKVQWKVDNALQSGNSQESVTEQDSKDSTYSLSSTLTLSKADYEKHKVYACEVTHQGLSSPVTKSFNRGEC"
105,99,98,95,99,98,0.623,3.93,"bispecific antibody JS-9 (IgG1) (bispecific antibody, Tetravalent) heavy: DIVMTQSPDSLAVSLGERATINCKASQSVSNDVAWYQQKPGQPPKLLIYYVSHRFTGVPDRFSGSGSGTDFTLTISSLQAEDVAVYFCHQAYRSPWTFGCGTKLEIKGGGGSGGGGSGGGGSGGGGSEVQLVESGGGLVKPGGSLRLSCAASGFTFSSYHMSWVRQAPGKCLELVSAINSNGINTYYLDTVKGRFTISRDNAKNSLYLQMNSLRAEDTAVYYCARHEDYYGFAMDYWGQGTLVTVSSGGGGSGGGGSQVQLVQSGAEVKKPGASVKVSCKTSGYAFTEYTMHWVRQAPGKGLEWMGGINPNTGGTTYNQKFQGRVTLTVDKSSSTAYMELSSLRSEDTVVYYCAKLLRLMYYFDYWGQGTLVTVSS[human IgG1 constant region omitted here] light: DIQMTQSPSSLSASVGDRVTITCQASQDVRTAVAWYQQKPGKAPKLLIYSASYRYTGVPSRFSGSGSGTDFTFTISSLQPEDIATYYCHQHYITPWTFGGGTKVEIKRTVAAPSVFIFPPSDEQLKSGTASVVCLLNNFYPREAKVQWKVDNALQSGNSQESVTEQDSKDSTYSLSSTLTLSKADYEKHKVYACEVTHQGLSSPVTKSFNRGEC"
